Data published in PubChem BioAssay AID1347430 (National Center for Advancing Translational Sciences (NCATS), 2020).
Screen size: about 91,000 compounds; about 130 (0.14%) were called active. The shares of active, inactive and inconclusive entries below differ from those in the screen. The call rests on the fitted dose curve; in most records, active means well fitted inhibition curve with a large enough effect; inconclusive means small, poorly fitted or top-dose-only effect; inactive means flat fitted curve, though single readings scatter. A potency beside an inconclusive call is a rough fit, not a confirmed value.

system: Uracil-DNA glycosylase; test: Primary qHTS assay for inhibitors of Activation Induced Cytidine Deaminase (AID): UDG Counterscreen signal; conditions: FRET deamination/UDG coupled assay, UDG read, 4 h; activity change, negative = inhibition: at 115 µM (top of the series); further: nearly all actives have a fitted effect of over 65% in size
On the % scale 0 is the no-effect control and ±100 the full control effect; potency means the concentration at half of the fitted maximal effect; tags describe the fitted curve by direction and shape.

SMILES	Potency	activity change, negative = inhibition
CCOc1ccc(CCNC(=O)C2CCN(Cc3nc(-c4ccccc4C)oc3C)CC2)cc1OCC	inconclusive: 89.1 µM [inhibitor, single point]	
O=C(Nc1ccccc1F)C12CC3CC(CC(C3)C1)C2		inactive: -1.36%
CCN(CC)C(=O)COc1ccc(-c2nnc(Nc3ccc(OC)c(C(=O)NC)c3)c3ccccc23)cc1	inconclusive: 100 µM [inhibitor, single point]	
Cc1ccc(C)c(CNC(=O)c2sc3ncnc(N(C)C4CCCCC4)c3c2C)c1	inconclusive: 89.1 µM [inhibitor, single point]	
Cc1ccc2c(CC(=O)OCC(=O)c3ccc4c(c3)OCO4)coc2c1	inconclusive: 70.8 µM [inhibitor, single point]	
CN(C)CCC(OC(=O)C1(c2ccccc2)CCCC1)c1ccccc1 (stereo unspecified)		inactive: -0.277%
CS(=O)(=O)N(Cc1csc(-c2cccs2)n1)C1CCN(C(=O)c2ccccc2)CC1	inconclusive: 89.1 µM [inhibitor, single point]	
COc1ccccc1-c1nnc(C2CCN(S(=O)(=O)c3ccc(F)c(C)c3)CC2)o1	inconclusive: 100 µM [inhibitor, single point]	
Cc1nc(-c2ccc(F)cc2)sc1CCNC(=O)c1ccc(C(C)(C)C)cc1		inactive: -12.9%
Nc1c(-c2nc(-c3ccc4c(c3)OCO4)cs2)c2ccccn2c1C(=O)c1ccc(Cl)cc1	inconclusive: 100 µM [inhibitor, partial curve, poor fit]	
Cc1ccc(SCc2nc(-c3ccc(C(=O)NCC(C)c4ccccc4)cc3)oc2C)cc1 (stereo unspecified)	inconclusive: 70.8 µM [inhibitor, partial curve, poor fit]	
CCN(c1ccccc1)S(=O)(=O)c1ccc(NC(=O)c2nc(SC(C)C)ncc2Cl)cc1	inconclusive: 89.1 µM [inhibitor, single point]	
COc1ccc(-c2cc(C(F)(F)F)nc(NCc3ccc(F)cc3)n2)cc1	inconclusive: 50.1 µM [inhibitor, partial curve, poor fit]	
CC(C)OCCCNC(=O)CCCN1C(=O)CCn2nc(-c3cccn3C)cc21		inconclusive: -33.5% [inhibitor]
Cc1cccc(N2CCN(C(=O)c3cc4ccc5cccnc5c4[nH]3)CC2C)c1 (stereo unspecified)	inconclusive: 79.4 µM [inhibitor, partial curve, poor fit]	
COc1ccccc1-c1nc(SCC(=O)c2ccc(Cl)cc2)n[nH]1	inconclusive: 89.1 µM [inhibitor, single point]	
CCOc1ccccc1NS(=O)(=O)c1cc(-c2cnc(C3CC3)o2)ccc1C	inconclusive: 89.1 µM [inhibitor, partial curve, poor fit]	
COc1cccc(CN(C(=O)c2oc3ccccc3c2C)C2CCS(=O)(=O)C2)c1 (stereo unspecified)	inconclusive: 79.4 µM [inhibitor, partial curve, poor fit]	
O=C(Cc1ccc(Cl)cc1)Nc1ccc2oc(-c3ccccc3F)nc2c1	inconclusive: 89.1 µM [inhibitor, single point]	
COc1ccc(C(=O)COC(=O)C(C)Oc2ccc(F)cc2)cc1OC (stereo unspecified)		inactive: -15.6%
Cc1c(C(=O)Nc2ccc(-n3c(C)nc4ccccc4c3=O)cc2)cccc1[N+](=O)[O-]	inconclusive: 79.4 µM [inhibitor, partial curve, poor fit]	
CCOC(=O)c1ccc2c(c1)N(Cc1ccc(F)cc1Cl)C(=O)c1ccccc1S2(=O)=O	inconclusive: 25.1 µM [inhibitor, partial curve, poor fit]	

SMILES	Potency	activity change, negative = inhibition
CC1CCc2c(sc(NC(=O)C3c4ccccc4Oc4ccccc43)c2C#N)C1 (stereo unspecified)	inconclusive: 100 µM [inhibitor, single point]	
Cc1ccc(-n2ncc3c(NCCC4=CCCCC4)ncnc32)cc1	inconclusive: 89.1 µM [inhibitor, partial curve, poor fit]	
COc1ccccc1N1CCN(CCCNC(=O)c2cnn(-c3cccc(Cl)c3)c2C2CCN(C(=O)OC(C)(C)C)CC2)CC1	inconclusive: 79.4 µM [inhibitor, single point]	
O=C(OCc1cc2ccccc2[nH]c1=O)c1ccco1		inactive: -3.27%
Cc1ccccc1CN1CCC(CNc2ncnc3onc(-c4ccc(F)cc4)c23)CC1	inconclusive: 79.4 µM [inhibitor, partial curve, poor fit]	
CC(C)[C@H](Nc1ncnc2sc3c(c12)CCCC3)C(=O)O		inactive: 2.39%
Cc1ccccc1OCC(=O)NC12CC3CC(CC(C3)C1)C2		inactive: -17.8%
CC1C(=O)N2CCCc3cc(S(=O)(=O)N4CCC(C(N)=O)CC4)cc1c32 (stereo unspecified)	inconclusive: 89.1 µM [inhibitor, single point]	
COc1cccc(CNC(=O)c2cnc(N3CCCCC3)c3ccccc23)c1	inconclusive: 89.1 µM [inhibitor, single point]	
O=C(NCc1ccc(OC(F)(F)F)cc1)C1CCN(S(=O)(=O)/C=C/c2ccccc2)CC1		inactive: 3.65%
Cc1ccc(-n2c(=O)c3c(cnn3C)n(CC(=O)Nc3ccccc3C)c2=O)cc1	inconclusive: 89.1 µM [inhibitor, single point]	
Cc1nn2c(C)c(C(=O)NCC(C)c3ccccc3)cnc2c1-c1ccccc1 (stereo unspecified)	inconclusive: 79.4 µM [inhibitor, single point]	
CNS(=O)(=O)c1cn(CC(=O)N2CCN(c3cc(C)ccc3C)CC2)cc1S(=O)(=O)NC	inconclusive: 89.1 µM [inhibitor, single point]	
CCOC(=O)c1ccc(NC(=O)COC(=O)c2cn(CC)c3nc(C)ccc3c2=O)cc1		inactive: -0.357%
CC1CN(S(=O)(=O)c2ccc3c(c2)NC(=O)CC(=O)N3)c2ccccc2O1 (stereo unspecified)	inconclusive: 89.1 µM [inhibitor, single point]	
O=C(OCC(=O)N1CCCC1)c1c[nH]c2ccccc12	inconclusive: 89.1 µM [inhibitor, single point]	
CCOc1ccc(C2C=C(c3ccc(OC)cc3)Nc3ncnn32)cc1 (stereo unspecified)		inactive: 8.91%
CC(CN(CCN(C)C)Cc1ccccc1)c1ccccc1 (stereo unspecified)		inactive: 4.22%
CCOc1ccccc1C(=O)Nc1c(NCc2ccccc2)c2ccccc2oc1=O		inactive: 1.67%
O=C(CSc1nc2ccccc2s1)Nc1cccc(C(F)(F)F)c1		inactive: -5.74%
CCOc1ccc(NC(=O)Cn2c(=O)oc3cc(S(=O)(=O)N4CCCCCC4)ccc32)cc1	inconclusive: 89.1 µM [inhibitor, single point]	
Cc1ccc2oc(=O)n(CCCOc3ccc(Cl)cc3)c2c1	inconclusive: 89.1 µM [inhibitor, partial curve, poor fit]	

SMILES	Potency	activity change, negative = inhibition
C=CCNC(=O)NC(=O)CN(C)Cc1ccc(-c2ccc(Br)cc2)o1		inactive: 2%
O=C(CSCc1nc2cccnc2n1C1CCCCC1)NCc1cccc(Cl)c1	inconclusive: 89.1 µM [inhibitor, single point]	
COc1ccc(-n2nc(C(=O)N3CCN(c4cccc(C)c4C)CC3)c3c4ccccc4n(C)c3c2=O)cc1		inconclusive: -34.4% [inhibitor]
OCCCNC(=S)Nc1ccc(F)cc1		inactive: -0.907%
COc1cc(NC(=O)CN2C(=O)CN(C)C(=O)c3ccccc32)cc(OC)c1OC	inconclusive: 89.1 µM [inhibitor, single point]	
CCCCN1CC(c2nc3ccccc3n2CCCCOc2ccc(C)c(C)c2)CC1=O (stereo unspecified)	inconclusive: 56.2 µM [inhibitor, partial curve, poor fit]	
Cc1ccc(F)c(NC(=O)Nc2ccc3snnc3c2)c1		inactive: -11.6%
CCCCCCCSc1nc2c(c(=O)[nH]c(=O)n2C)n1CCC	inconclusive: 79.4 µM [inhibitor, single point]	
COc1cccc(-c2nc(CS(=O)(=O)CC(=O)Nc3c(C)cc(C)cc3C)c(C)o2)c1	inconclusive: 100 µM [inhibitor, single point]	
Cc1cc(NC(=O)N(C)CCc2c(C)nn(C)c2C)ccc1Br		inactive: -28.5%
CCc1cccc(C)c1NC(=O)CSc1nc2ccccc2nc1N1CCOCC1	inconclusive: 89.1 µM [inhibitor, partial curve, poor fit]	
CCOc1ccc(N(CC)S(=O)(=O)N2CCCC(C(=O)NCc3ccccc3Cl)C2)cc1 (stereo unspecified)	inconclusive: 79.4 µM [inhibitor, single point]	
CCOc1ccc(-c2nnc(SCC(=O)NCCC(C)C)nc2-c2ccc(OCC)c(OC)c2)cc1OC	inconclusive: 89.1 µM [inhibitor, single point]	
CN1CCN(c2ccc3cc(S(=O)(=O)N4CCCC4)ccc3n2)CC1		inactive: 8.17%
CSc1ncc(Cl)c(C(=O)N(Cc2ccc(N(C)C)cc2)Cc2ccco2)n1	inconclusive: 79.4 µM [inhibitor, partial curve, poor fit]	
O=c1oc(-c2ccncc2)cc2ccccc12		inactive: -0.169%
CCn1nccc1-c1cc(C(=O)O)c2cccc(C)c2n1		inactive: 1.53%
O=C(Nc1nc2ccc(F)cc2s1)c1nc(S(=O)(=O)Cc2ccccc2)ncc1Cl		inactive: 16.1%
CCCSc1ncc(Cl)c(C(=O)Nc2nc3ccc(OCC)cc3s2)n1	inconclusive: 89.1 µM [inhibitor, single point]	
N#Cc1ccc(CSc2nc3c(c(=O)[nH]2)CCC3)cc1	inconclusive: 89.1 µM [inhibitor, partial curve, poor fit]	
O=C(CC1C(=O)OCCN1Cc1ccccc1)Nc1cccc(C(F)(F)F)c1 (stereo unspecified)		inactive: 0.353% [at 57.5 µM]
COc1ccc(S(=O)(=O)Nc2cc3c(cc2NCc2ccccc2)n(C)c(=O)n3C)cc1OC	inconclusive: 89.1 µM [inhibitor, partial curve]	
